The campaign covered roughly 150,000 compounds. About 540 (0.36%) showed an effect of 50% or more. Some of the results follow.

For the test, the system named is Plasmodium falciparum. The experiment in a line: Primary screen in NF54 nanoGlo assay, in single point, at 2uM, 72h; a lower Z score goes with more inhibition. The test is classed as functional, Erythrocyte. As to conditions: timepoint 72 hour.
One may read the % Inhibition as the change of the read-out against control, counted positive when it falls. With `CN1CCNC(=O)C[C@@H]2CN(Cc3cccc(Cl)c3F)C[C@@H]2n2cc(nn2)Cn2cccc(c2=O)C1=O`, the “% Inhibition” value is reported as -12% and the Z score was 2.31.
In the case of `CCNc1ccnc(NCCn2nc(C)c(C)c2C)n1`, the “% Inhibition” value is -6% and the Z score stood at 0.79.
For `O=S(=O)([N-]c1nc2ccccc2nc1-[n+]1ccccc1)c1cccs1` the same measures were 2% and -0.27.
`CC(C(=O)N1CCCc2ccccc21)S(=O)(=O)CC1CCCO1` (stereo unspecified): the “% Inhibition” value stood at 3% and the Z score is on record as -0.33.
As to `CN1C(=O)[C@@H]2CC[C@H]1CN(S(=O)(=O)Cc1cc(F)ccc1Cl)C2`, the “% Inhibition” value is 1% and the Z score was -0.15.
For `O=C(c1ccco1)N(CC1CCN(C2Cc3ccccc3C2)CC1)C[C@H]1CCCO1` the same measures were -7% and 1.09.
Consider `CCOc1ccc(NS(=O)(=O)c2cc(-c3c(CC)nn4c3NC(=O)CCC4=O)ccc2OC)cc1`, for which the “% Inhibition” value is 3% and the Z score is listed as -0.35.
Consider `O=C(CNc1ccn(CC(F)(F)F)n1)Nc1cccc(Cl)c1Cl`, for which the “% Inhibition” value was -2% and the Z score was 0.25.
For `Cc1ccc(Cn2cccc2C(=O)C(=O)Nc2ccccc2)cc1C` the same measures were -16% and 1.52.
In the case of `CCN1CCCc2cc(C(=O)NCc3ccccc3OC)sc21`, the “% Inhibition” value was -8% and the Z score was found to be 1.49.
Regarding `O=C1COc2ccc(S(=O)(=O)N3CCC[C@H]3C(=O)Nc3cccc(Cl)c3)cc2N1`, the “% Inhibition” value is listed as -7% and the Z score turned out to be 1.2.
Turning to `O=C(Cc1cccs1)Nc1ccc2c(c1)OCCCO2`, the “% Inhibition” value is -3% and the Z score is on record as 0.56.
Regarding `Cc1cccc(-c2nn(-c3ccccc3)c3nc(OCC(=O)Nc4ccccc4)cc(C)c23)c1`, the “% Inhibition” value is -10% and the Z score stood at 1.28.
The matching figures for `Cc1[nH]ncc1CNC(=O)c1cc2n(n1)C[C@@H](c1ccc(F)cc1)OC2`: -10% and 1.12.
With `NC(=O)c1ccccc1NC(=O)CN1CCC[C@H](C(=O)c2ccc(F)cc2)C1`, the “% Inhibition” value is reported as 1% and the Z score is -0.13.
Consider `COc1ccc(OC)c(S(=O)(=O)Nc2ccc(-c3nc4ccc(C)cc4s3)cc2)c1`, for which the “% Inhibition” value is -12% and the Z score was determined as 1.48.
Take `CC[C@H]1COCCN1C(=O)c1c[nH]c2ncccc12`: the “% Inhibition” value was 32% and the Z score was -3.58.
In the case of `Cc1ccc(CNC(=O)c2cnc3c(c2)ncn3C)c(C)c1`, the “% Inhibition” value is recorded as -19% and the Z score was found to be 1.66.
Turning to `C=C(C)c1nc(C#N)c(NC2CCCC2)o1`, the “% Inhibition” value is -3% and the Z score was determined as 0.38.
For `C/C=C(\C)CN(C)CCn1cc(C(=O)NCc2ccncc2)nn1` the same measures were -12% and 2.
With `CCCc1cc(CN(C)[C@H]2CN(Cc3nc4ccccc4n3C)C[C@@H]2O)n[nH]1`, the “% Inhibition” value was -7% and the Z score was 0.95.
Take `CCn1ncc(-c2noc3nc(C4CC4)cc(C(=O)Nc4nn(C)cc4Cl)c23)c1C`: the “% Inhibition” value amounted to 28% and the Z score is listed as -3.15.
With `O=C1NC2(CCN(C(=O)c3ccoc3C(F)(F)F)CC2)CO1`, the “% Inhibition” value is -19% and the Z score is 3.05.
Regarding `COc1ccc(N2CCN(c3nc(C(=O)NC(C)C)cs3)CC2)cc1`, the “% Inhibition” value is listed as -4% and the Z score is reported as 0.54.
For the compound `O=c1[nH]c(NCCc2ccccc2)nc2c1CN(Cc1ccccc1)CC2`, the “% Inhibition” value came out at 6% and the Z score was -0.97.
With `C#CCCOC(=O)c1cnc(CCC)s1`, the “% Inhibition” value is on record as -7% and the Z score was 1.07.
The matching figures for `Cc1sc(-c2ccno2)cc1S(=O)(=O)N(C)Cc1ncon1`: 3% and -0.48.
On to `COc1ccc([C@@H]2CC(c3nc4ccccc4[nH]3)=NN2C(=O)CCN2CCCCC2)cc1`, for which the “% Inhibition” value is given as -5% and the Z score was found to be 0.67.
As to `O=C(c1ccc2[nH]ccc2c1)N1C2CCC1CC(n1ccnc1)C2` (stereo unspecified), the “% Inhibition” value is reported as -12% and the Z score is recorded as 1.5.
With `CC(=O)Nc1ncc(S(=O)(=O)NCC2(c3ccc(F)cc3)CC2)s1`, the “% Inhibition” value amounted to 0% and the Z score worked out at 0.06.
`O=S(=O)(NC1CCCCC1)c1ccc2ccccc2c1`: the “% Inhibition” value was found to be 0% and the Z score is on record as 0.02.
The matching figures for `CCNS(=O)(=O)CCNC(=O)C[C@H](C)c1cccc(F)c1`: -7% and 0.59.
Turning to `COC(=O)c1ccc(Cl)c(CN2CCC(c3nnc[nH]3)CC2)c1`, the “% Inhibition” value was -8% and the Z score is recorded as 1.07.
In the case of `CC(C)n1cc(Br)cc1C(=O)N1CCO[C@H](C(N)=O)C1`, the “% Inhibition” value is recorded as -5% and the Z score is reported as 0.62.
Consider `N#Cc1cc(F)ccc1CN1C(=O)CN(C2CCCC2)C1=O`, for which the “% Inhibition” value is on record as -16% and the Z score came to 1.57.
Consider `Cc1ccc([C@H]2CCN(CCCS(N)(=O)=O)C2)c(C)c1`, for which the “% Inhibition” value is given as -3% and the Z score was 0.38.
Turning to `Cc1ccc(-c2ncccc2C#N)c2cccnc12`, the “% Inhibition” value is given as -3% and the Z score was found to be 0.61.
For `CC(C)c1nnnn1[C@H]1CO[C@H]2[C@@H]1OC[C@H]2OC(=O)Nc1cccc(C#N)c1`, the “% Inhibition” value is listed as 0% and the Z score is -0.05.
As to `CCN(C)C(=O)N1CCC2(C1)OCCO2`, the “% Inhibition” value is 25% and the Z score was -2.87.
For `COc1cccc([C@@H]2CCN2C(=O)Nc2nc(C3CCCCC3)n[nH]2)c1` the same measures were 7% and -0.91.
Turning to `COc1ccc(OC)c(C(=O)N2CCN(C)Cc3ccccc32)c1`, the “% Inhibition” value is given as -5% and the Z score amounted to 0.46.
As for `C[C@@H](c1ccc(-c2cnc3scnc3c2)cc1)N(C)C`, the “% Inhibition” value is -16% and the Z score was determined as 2.96.
For `C1=CC2CCC1CC2CNCc1ccccc1` (stereo unspecified) the same measures were -6% and 1.03.
